From paper PMC4336329 (PLoS ONE, 2015)
Screen size: about 310,000 compounds; about 14,000 (4.5%) showed an effect of 50% or more. Effects have a minus sign here. Some of the results follow.

These molecules were tested against human ether-à-go-go-related gene (hERG) potassium channel (human, UniProt Q12809) (assay: primary screen, population patch clamp on CHO cells stably expressing hERG).
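Also: peak tail current of the secondary pulse compared with the same well before compound.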

human ether-à-go-go-related gene (hERG) potassium channel, sequence (Q12809 whole entry, looked up): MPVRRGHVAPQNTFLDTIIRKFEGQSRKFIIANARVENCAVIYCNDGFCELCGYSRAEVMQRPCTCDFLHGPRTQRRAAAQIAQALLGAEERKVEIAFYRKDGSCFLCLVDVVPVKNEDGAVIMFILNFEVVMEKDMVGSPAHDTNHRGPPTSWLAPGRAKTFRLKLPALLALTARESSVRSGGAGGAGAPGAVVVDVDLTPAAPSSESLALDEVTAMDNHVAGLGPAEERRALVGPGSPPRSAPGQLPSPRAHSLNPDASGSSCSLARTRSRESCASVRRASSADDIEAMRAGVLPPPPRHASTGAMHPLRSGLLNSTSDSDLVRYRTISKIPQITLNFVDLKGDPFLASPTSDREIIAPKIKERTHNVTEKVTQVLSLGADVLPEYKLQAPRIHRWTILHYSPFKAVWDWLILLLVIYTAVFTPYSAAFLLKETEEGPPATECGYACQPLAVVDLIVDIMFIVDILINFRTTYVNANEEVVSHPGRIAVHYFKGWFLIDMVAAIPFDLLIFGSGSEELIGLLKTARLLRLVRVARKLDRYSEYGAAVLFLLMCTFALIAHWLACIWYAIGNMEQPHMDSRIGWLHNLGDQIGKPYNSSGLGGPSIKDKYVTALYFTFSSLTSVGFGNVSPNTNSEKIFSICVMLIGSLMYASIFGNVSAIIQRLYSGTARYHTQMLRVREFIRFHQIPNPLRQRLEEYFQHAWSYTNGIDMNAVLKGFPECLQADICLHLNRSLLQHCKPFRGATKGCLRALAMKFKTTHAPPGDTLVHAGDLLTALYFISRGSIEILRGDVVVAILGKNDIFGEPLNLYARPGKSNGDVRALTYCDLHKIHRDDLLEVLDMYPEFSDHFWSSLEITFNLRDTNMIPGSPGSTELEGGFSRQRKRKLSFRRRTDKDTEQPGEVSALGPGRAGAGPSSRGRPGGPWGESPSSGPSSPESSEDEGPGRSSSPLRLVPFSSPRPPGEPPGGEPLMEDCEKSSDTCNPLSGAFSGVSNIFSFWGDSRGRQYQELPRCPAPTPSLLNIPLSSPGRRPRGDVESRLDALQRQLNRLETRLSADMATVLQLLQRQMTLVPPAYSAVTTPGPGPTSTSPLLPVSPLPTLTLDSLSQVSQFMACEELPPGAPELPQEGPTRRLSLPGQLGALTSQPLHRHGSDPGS

SMILES	hERG current change (%, negative = inhibition) at 10uM [%]
CC(=O)N1c2ccc(S(=O)(=O)N(C)CC(=O)N(C)Cc3ccccc3)cc2CC1C (stereo not shown)	4.76
CC(C)CCNC(=O)c1onc(CSc2nc3ccccc3[nH]2)c1C(=O)NCCC(C)C	7.33
COc1ccc(OC(C)C(=O)NC2CCCCCC2)cc1 (stereo not shown)	-0.287
COc1ccccc1-n1cnnc1SCC(=O)N1CCN(C(=O)c2ccco2)CC1	6.54
Cc1nnc(SCC(=O)N2CCC(c3noc4ccc(F)cc34)CC2)s1	-25.1
Cc1ccccc1C(=O)Nc1ccc(C(=O)N/N=C/c2ccc(O)cc2)cc1	10.7
CCOC(=O)c1cc(-c2ccncc2)nc2c1c(C)nn2-c1ccccn1	-63.3
Cc1cc(NC(=O)c2ccc([N+](=O)[O-])cc2)no1	16.2
COc1ccccc1-c1c(C(F)(F)F)oc2cc(OC(=O)c3cccc([N+](=O)[O-])c3C)ccc2c1=O	16.9
CCn1c(/C=N/n2cnnc2)nc2ccccc21	-5.4
Cc1cccn2c(=O)c(C=C(C#N)C#N)c(N3CCN(C)CC3)nc12	-4.9
COc1ccc(NC(=O)COC(=O)/C=C/c2cccs2)c(OC)c1	0.755
CC(C)(C)c1nn2cnnc2n(/N=C/c2ccc(O)cc2)c1=O	-5.59
CC(=O)c1ccc(C(=O)NC2CCCN(Cc3ccc(Cl)cc3)C2)s1 (stereo not shown)	-66.4
N#Cc1c(F)cccc1N1CCOCC1	14.6
CCc1ccccc1NC(=O)NNC(=O)CCc1ccc(OC)cc1	17.8
CC1CCCCC1NS(=O)(=O)CCNC(=O)c1ccccc1 (stereo not shown)	-5.88
COc1ccc(CCNC(=O)CNS(=O)(=O)c2ccc(Br)cc2)cc1	-3.07
CC1=CC(c2ccc(Cl)cc2)n2ncnc2N1 (stereo not shown)	-9.02
O=C(Cn1c(=O)sc2ccccc21)Nc1ccc(O)cc1	14.6
COc1ccccc1-c1cc(C(=O)Nc2c(F)cc(F)cc2Br)no1	-32.1
O=C1c2ccccc2C(=O)N1CCCCON1C(=O)c2ccccc2C1=O	5.57

SMILES	hERG current change (%, negative = inhibition) at 10uM [%]
O=C(OC(c1ccccc1)c1nccc2ccccc12)c1cc([N+](=O)[O-])cc([N+](=O)[O-])c1 (stereo not shown)	22.9
C[C@H](N)c1nnc(SCC(=O)N(C)C)o1.Cl	-2.88
COc1ccc(S(=O)(=O)Nc2ccc(NC(C)=O)cc2)cc1Cl	13.6
Cc1cccc(-n2c(=O)c3c(n4cnnc24)-c2ccccc2CC32CCCCC2)c1	-21.2
Cc1ccc(C(=O)N2CCCCCC2)cc1S(=O)(=O)Nc1ccccc1	-26.5
CCOc1ccc(Nc2ncnc3c2cnn3C)cc1	-16.6
COCCN(Cc1cc2cc(C)ccc2n2nnnc12)C(=S)Nc1cccc(C)c1	28.9
O=C(COc1ccc2c3c(c(=O)oc2c1)CCC3)N1CCN(c2ccccc2)CC1	-12.6
CCCN1CCN(CCCNC(=O)Cn2cc3c(n2)CCCC3)CC1	-7.41
COc1ccc(OCCC(=O)OCC(=O)Nc2ccc(Br)cc2)cc1	25
CCc1nc(CN2CCN(c3cc(C(F)(F)F)ccn3)CC2)c(C)[nH]1	-45.2
CCOC(=O)C1CCN(CCC(=O)Nc2cc(C)ccc2C)CC1	-10.7
Cc1nc2c(-c3ccc(F)cc3)c(C)nn2c(C)c1CCC(=O)Nc1ccccc1F	-10.7
Cn1ccnc1COc1ccc(/C=N/O)cc1	-6.61
COC(=O)C1=C(c2cccc(C#N)c2)C[C@@H]2CC[C@H]1N2C(=O)N1CCCC1	11
O=C(COC(=O)c1cn(-c2ccccc2)nc1-c1ccc(F)cc1)Nc1ncc(Cl)cc1Cl	-0.58
CCCN(CC(=O)Nc1ccc(Cl)cc1Cl)C(=O)CC(NC(C)=O)c1ccccc1 (stereo not shown)	0.715
O=C(NCc1ccccc1)c1ccccc1C(=O)c1ncc[nH]1	11.4
COc1ccc(C(=O)NC(=S)NNC(=O)c2ccc(NC(C)=O)cc2)cc1Br	-5.12
COCCCn1c(SCC(=O)OC2CCCCC2)nnc1-c1ccco1	-56
O=C(C1=C(O)C(=O)N(CCOCCO)C1c1ccccn1)c1cccs1 (stereo not shown)	14
Cc1ccc(N2NC3(CCN(C(N)=O)CC3)NC2=O)cc1	19.3

SMILES	hERG current change (%, negative = inhibition) at 10uM [%]
COC(=O)c1ccc(N2CCN(C)CC2)c(NC(=O)COc2ccc(OC)cc2)c1	-53.5
CCOc1ccccc1C(C(=O)NCCOC)N(CCOC)C(=O)Cn1nnc2ccccc21 (stereo not shown)	18.5
Cn1c(NCc2cccs2)nc2ccccc21	-11.1
COc1ccc(CS(=O)(=O)CC(C)(O)c2ccc(Cl)cc2)cc1 (stereo not shown)	-0.035
COc1ccc(C(=O)/C=C/c2cc(C(=O)O)cc3c2OCOC3)c(O)c1	-0.565
O=C(N/N=C/c1ccc(-n2ccnc2)cc1)c1cccs1	-34.5
O=C(Nc1ccccc1Cl)N1CCN(c2ccccn2)CC1	-15.3
OCCNC(=S)Nc1ccc(Cl)c(Cl)c1	-0.451
COc1ccc(OC)c(S(=O)(=O)Nc2cnc3ccccc3c2)c1	0.0276
COc1cccc(CNS(=O)(=O)c2cccc(S(=O)(=O)N3CCOCC3)c2)c1	5.15
CC(C)NC(=O)CSc1nc2ccccc2n1-c1ccccc1	-7.15
CCn1cc(C(C)(C)C)c(C#N)c1NC(C)=O	-0.576
CCN1C(=O)c2ccc(C(=O)NCc3ccc4c(c3)OCO4)cc2C1=O	-1.11
O=C(C1=C[C@H](c2ccccc2)C[C@H](OCc2ccc(CO)cc2)O1)N1CCN(Cc2ccc3c(c2)OCO3)CC1	-39.5
COc1ccc(Cc2c(C)nc(N)nc2Cl)cc1	12.4
CN(C)S(=O)(=O)c1ccc(N2CCN(S(=O)(=O)c3ccc(F)cc3)CC2)c(Cl)c1	7.68
CC(C)Nc1nc(Oc2ccc(Cl)cc2Cl)cc(C(F)(F)F)n1	8.11
O=c1oc2ccccc2cc1-c1cn2ccccc2n1	11.9
Nc1c(C(=O)O)nnn1Cc1ccccc1	8.99
CCCc1nc2c(o1)CC(CC(C)SCC)CC2=O (stereo not shown)	-27
COC(=O)/C=C/C(=O)Nc1cccnc1	14.2
Cc1ccnc(NCn2nnc3ccccc32)c1	7.69

SMILES	hERG current change (%, negative = inhibition) at 10uM [%]
O=C(COC(=O)c1ccc(O)cc1)NCC1CCCO1 (stereo not shown)	16.9
COc1ccc(C(=O)N2CCN(S(=O)(=O)c3cc(Cl)ccc3OC)CC2)cc1	-27.1
O=C(CNS(=O)(=O)c1ccc(Br)s1)N1CCN(C(=O)c2ccco2)CC1	-42.9
Cc1cccc(Cl)c1NC(=S)NN	11.2
Cc1cccc(S(=O)(=O)c2c(N)n(/N=C/c3ccco3)c3nc4ccccc4nc23)c1	5.25
CC(=O)O[C@]1(C(C)=O)CC[C@H]2[C@@H]3C=CC4=CC(=O)C=C[C@]4(C)[C@H]3CC[C@@]21C	15.1
CCCN(CC(=O)Nc1cc(C)on1)CC(=O)Nc1ccccc1C	4.99
CC(C)n1cc([C@@H]2C[C@H]3CN(Cc4cccc(Cl)c4)C(=O)[C@]34CCCN24)cn1	-33.7
Cc1nc2cc(-c3ccccc3)nn2c(N)c1-c1ccccc1	3.43
Cc1cc(C)c(NC(=O)Cc2ccc(-n3cccc3)cc2)c(C)c1	14.2
Cc1cccc(-n2c(SCC(=O)NCc3ccc4c(c3)OCO4)nc3ccccc3c2=O)c1	10.8
CC(C)CCNC(=O)C(C)N(C(=O)Cn1nnc(-c2ccc(F)cc2)n1)C1CCCC1 (stereo not shown)	-20.1
CC(C)NS(=O)(=O)c1cccc2nsnc12	2.23
COc1ccc(N2C(=O)/C(=C/c3ccc(N(C)C)o3)C(=O)NC2=S)cc1	3.28
Cc1ccc(C)c(OCCC(=O)OC(C)C(=O)Nc2c(C)n(C)n(-c3ccccc3)c2=O)c1 (stereo not shown)	-21.4
O=C(CNC(=O)c1ccc(Br)o1)NCc1ccc2c(c1)OCO2	6.72
O=C(N/N=C/c1cccc([N+](=O)[O-])c1)c1cccc(Br)c1	17.1
COc1cc(Cn2c(=O)c3c(OC)c(C)cnc3n(C)c2=O)cc(OC)c1	14.1
CCc1nnc(NS(=O)(=O)c2ccc(N=Cc3c(C)[nH]n(-c4ccc(C)c(C)c4)c3=O)cc2)s1	15.9
CCOc1ccc2nc(NC(=O)CN3CCN(CC)CC3)sc2c1	-36.7
CCOC(=O)c1sc(=NC(=O)c2ccco2)n(C)c1C	20.3
O=S1(=O)CCC(N=Nc2c(O)n(Cc3ccccc3)c3ccccc23)C1 (stereo not shown)	-25.1
